Assay results from PubChem BioAssay AID686979 (National Center for Advancing Translational Sciences (NCATS), 2013).
“And” between values parts separate entries of the source, which are not always exact repeats. Identical values can stand only once. In all, about 420,000 compounds went through this assay and about 50,000 (12%) were called active. Inconclusive means that the source gave no clear call. Such entries were picked first, then a sample of the others. The call rests on the fitted dose curve; in most records, active means well fitted inhibition curve with a large enough effect; inconclusive means small, poorly fitted or top-dose-only effect; inactive means flat fitted curve, though single readings scatter. No potency is given beside an inconclusive call; the fits are too rough.

Assay: qHTS for Inhibitors of human tyrosyl-DNA phosphodiesterase 1 (TDP1): qHTS in cells in presence of CPT; further: nearly all actives have a fitted effect of over 55% in size
Details: chicken DT40 Tdp1-/-;hTDP1 cells + 20 nM CPT, ATP luminescence, 48 h; activity change, negative = growth inhibition: at 46.2 µM (top of the series) unless noted
Method in brief: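 Cell growth measured by CellTiter-Glo luminescence after a minimum 48 h, 37 C compound exposure with 20 nM CPT in Tdp1-knockout DT40 cells stably expressing hTDP1, seeded 400/well; qHTS titration format.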
On the % scale 0 is the no-effect control and ±100 the full control effect; potency means the concentration at half of the fitted maximal effect; tags describe the fitted curve by direction and shape.

Row | Structure (SMILES) | Potency | activity change, negative = growth inhibition
1 | OC(COCc1ccc2c(c1)OCO2)CN1CCC(Cc2ccccc2)CC1 (stereo unspecified) | inconclusive [inhibitor, single point] | 
2 | Cc1cccc(NS(=O)(=O)c2ccc(-c3cnc(C4CC4)o3)cc2)c1C | active: 0.0073 µM | 
3 | O=C(Nc1ccccc1O)N1c2ccccc2Sc2ccccc21 | inactive | 
4 | COc1cccc(NC(=O)C2COc3ccccc3O2)c1 (stereo unspecified) | inactive | 
5 | Cc1cccc(C)c1NC(=S)NC(=O)c1ccc(Br)o1 | inconclusive [inhibitor, single point] | 
6 | COC(=O)c1cc(NC(=O)c2c(F)c(F)c(F)c(F)c2F)cc(C(=O)OC)c1 | inconclusive [inhibitor, single point] | 
7 | CSc1ccc(CN(C)Cc2nc3ccccc3c(=O)[nH]2)cc1 | inconclusive [inhibitor, single point] | 
8 | O=[N+]([O-])c1ccc(-c2ccn[nH]2)o1 | inconclusive [inhibitor, single point] | 
9 | CC(=O)Nc1ccc(OCC(O)Cn2nc(C)c(Br)c2C)cc1 (stereo unspecified) | inactive | 
10 | COc1cc(C=C(C#N)c2ccc([N+](=O)[O-])cc2)ccc1O | inconclusive [inhibitor, single point] | 
11 | CCn1c(SCc2c(F)cccc2Cl)nnc1-c1ccco1 | inconclusive [inhibitor, single point] | 
12 | CCCCCCN1C=CC=C/C1=C/C=C(C#N)C#N | inconclusive [inhibitor, partial curve, poor fit] | 
13 | COc1ccc(-c2cccc(CCC(=O)N3CCN(c4cc(C)ccc4C)CC3)c2)cc1 | inconclusive [inhibitor, single point] | 
14 | O=Nc1ccc(/C=C/c2ccnc3ccccc23)cc1 | active: 15.8 µM | 
15 | CCN1CCN(c2ccc(S(=O)(=O)N3CCCCC3)cc2NC(=O)COc2ccc(Cl)cc2)CC1 | inconclusive [inhibitor, single point] | 
16 | CC(=O)N1CCN(c2ccc(NC(=O)c3ccc4c(c3)OCCO4)cc2Cl)CC1 | inconclusive [inhibitor, single point] | 
17 | Cc1nn(-c2ccccc2)c2sc(C(=O)NNC(=O)COc3cccc4ccccc34)cc12 | inconclusive [inhibitor, single point] | 
18 | Cc1c(NC(=O)COc2ccc3ccc(=O)oc3c2)c(=O)n(-c2ccccc2)n1C | inactive | 
19 | Nc1c(N(CCC2=CCCCC2)C(=O)c2ccc([N+](=O)[O-])o2)c(=O)[nH]c(=O)n1Cc1ccccc1 | inconclusive [inhibitor, single point] | 
20 | O=C(NC1CCCC1)c1ccc(CSCc2ccccc2F)o1 | inconclusive [inhibitor, single point] | 
21 | CC(C)(C)C(=O)[C@@H]1[C@@H]2C(=O)N(c3ccc4c(c3)OCCO4)C(=O)[C@@H]2C2c3ccccc3C=CN21 (stereo partly specified) | inconclusive [inhibitor, single point] | 
22 | COc1ccc(-c2csc(C(C)(O)c3cccnc3)n2)cn1 (stereo unspecified) | inconclusive [inhibitor, partial curve, poor fit] | 
23 | CCOc1ccc(NC(=O)CN(C)C(=O)C2COc3ccccc3O2)cc1OCC (stereo unspecified) | inactive | 
24 | Cc1cc(C)c2ccc3c(C)c(C)nc3c2[nH]1 | inconclusive [inhibitor, single point] | 

Row | Structure (SMILES) | Potency | activity change, negative = growth inhibition
25 | NC(=O)n1c(O)c(C(=O)c2cccs2)c2cc(Cl)ccc21 | inactive | 
26 | CCc1c(-c2ccccc2)nc2ccccc2c1C(=O)NC(C)c1ccccc1 (stereo unspecified) | inconclusive [inhibitor, single point] | 
27 | CCOC(=O)C1CCCN(S(=O)(=O)c2cc(-c3onc(C)c3C)ccc2OC)C1 (stereo unspecified) | inconclusive [inhibitor, single point] | 
28 | CCc1ccc(-c2cc(C)no2)cc1S(=O)(=O)N1CCC(C)CC1 | inconclusive [inhibitor, single point] | 
29 | O=C(CNC(=O)C1CCCCC1)OCC(=O)c1ccc(C2CCCCC2)cc1 | inconclusive [inhibitor, single point] | 
30 | CN1CCN(C(=O)CN(C)S(=O)(=O)c2cc(Cl)ccc2Cl)CC1 | inactive | 
31 | Cc1ccc(S(=O)(=O)N2CCN(C(=O)CCc3c[nH]c4ccccc34)CC2)cc1 | inconclusive [inhibitor, single point] | 
32 | Cc1ccc(NC(=O)CSc2nc3ccccc3c(=O)n2CCCC(=O)N2CCCC2)cc1 | active: 18.4 µM | 
33 | Cc1ccsc1C(=O)Nc1ccc2c(c1)OCCO2 | inconclusive [inhibitor, single point] | 
34 | CCOC(=O)c1[nH]cnc1C(=O)Nc1ccc(Cl)cc1 | inactive | 
35 | COC(=O)c1ccc(NC(=O)CSC2=NCCN2)cc1 | inconclusive [inhibitor, single point] | 
36 | O=C(/C=C/c1ccc([N+](=O)[O-])cc1)c1ccccc(=O)c1O | active: 2.59 µM | 
37 | Cn1c(SCC(=O)N2CCCCC2)nc2cccnc21 | inactive | 
38 | Cc1nc2c(c(C)c1CCC(=O)NCc1ccc(F)cc1)c(=O)n(C)c(=O)n2C | inactive | 
39 | C[C@H]1CN([C@@H](C)CO)C(=O)CCCn2cc(nn2)CO[C@@H]1CN(C)C(=O)Nc1ccc(-c2cccs2)cc1 | inactive | 
40 | CCCCn1c(=N)n(CC(=O)c2ccco2)c2ccccc21 | inconclusive [inhibitor, single point] | 
41 | CCOC(=O)c1c(C)n(C)c2c(C)cc(O)c(OC(=O)CC)c12 | active: 7.31 µM | 
42 | O=C(CCl)N1N=C(c2ccco2)CC1c1cccs1 (stereo unspecified) | active: 2.06 µM | 
43 | COc1ccc(-c2nc(NC(=O)c3ccco3)sc2C)cc1 | active: 20.6 µM | 
44 | CCOc1ccccc1N1CCN(C(=O)Nc2ccc(F)c(Cl)c2)CC1 | inconclusive [inhibitor, single point] | 
45 | CNS(=O)(=O)c1ccc(NC(=O)C2c3ccccc3Oc3ccccc32)cc1 | inactive | 
46 | COc1ccc(-c2cc(CCCC(=O)NCCc3cc(OC)ccc3OC)no2)cc1 | inconclusive [inhibitor, single point] | 
47 | Cc1cccc(/N=C/c2c(O)ccc3oc4c(c23)CCCC4)n1 | inconclusive [inhibitor, single point] | 
48 | COc1cc(OC)cc(C(=O)NNC(=O)C(=O)Nc2cc(OC)c(Cl)cc2OC)c1 | inconclusive [inhibitor, single point] | 

Row | Structure (SMILES) | Potency | activity change, negative = growth inhibition
49 | CCN(c1ccccc1)S(=O)(=O)c1cc(C(=O)OCC(=O)c2c(N)n(C)c(=O)n(C)c2=O)ccc1C | active: 9.2 µM | 
50 | CCCC(=O)N1CC(=O)Nc2ccc(Br)cc2C1c1ccc(F)cc1 (stereo unspecified) |  | inconclusive: -30.3% [inhibitor]
51 | COc1ccc(OC)c(CCNC(=O)Cn2cccc2C(=O)c2ccccc2C)c1 | inconclusive [inhibitor, partial curve, poor fit] | 
52 | CN(C)CCNC(=O)/C(=C/c1ccc(-c2ccc(Cl)cc2)o1)NC(=O)c1ccccc1 | inconclusive [inhibitor, single point] | 
53 | CCCN(c1ccccc1F)S(=O)(=O)c1ccc2c(c1)C(C)(C)C(=O)N2C | inconclusive [inhibitor, single point] | 
54 | O=C(NCc1ccc(N2CCCC2=O)cc1)c1cc(COc2c(F)cccc2F)on1 | inconclusive [inhibitor, single point] | 
55 | O=C(/C=C\c1ccco1)NC(=S)Nc1ccccc1O | active: 18.4 µM | 
56 | COc1ccccc1NC(=O)C(C)OC(=O)c1cccc(-n2cnnn2)c1 (stereo unspecified) | inconclusive [inhibitor, single point] | 
57 | OCCN1C2=NCCCN2c2ccccc21 | inactive | 
58 | CCOC(=O)c1c(C)oc2c1c(C(c1cccnc1)N1CCOCC1)c(O)c1ccccc12 (stereo unspecified) | inconclusive [inhibitor, single point] | 
59 | CCOc1ccccc1NC(=O)c1cc(-c2ccncc2)nc2c(Cl)cccc12 | inconclusive [inhibitor, single point] | 
60 | COCCn1nnnc1C(c1ccccn1)N1CCN(c2cc(C)ccc2C)CC1 (stereo unspecified) | inactive | 
61 | CCOc1ccccc1NC(=O)Cn1nnc(C(=O)NCc2cccs2)c1N | active: 5.2 nM and active: 130 nM | 
62 | CN(C)c1nc(-c2cccc(NS(C)(=O)=O)c2)nc2ccccc12 | inactive | 
63 | O=C(CSc1nnc2ccccn12)Nc1cccc(-c2nc3ccccc3s2)c1 | inactive | 
64 | CCOc1ccc(NC(=S)N2CCN(C/C=C/c3ccccc3)CC2)cc1 |  | inconclusive: -32.3% [inhibitor]
65 | Cc1cccc(-c2nc(CN3CCN(Cc4cccc(F)c4)CC3)c(C)o2)c1 | inconclusive [inhibitor, single point] | 
66 | O=C(Nc1ccc2c(c1)CCCN2C(=O)c1cccs1)c1cccc(F)c1 | inconclusive [inhibitor, single point] | 
67 | COc1ccc(NC(=O)CN(C)C(=O)c2ccc(COc3ccccc3)cc2)cc1 | inconclusive [inhibitor, single point] | 
68 | Cc1cc(=O)[nH]c(S/C=C/c2ccccc2)n1 | inconclusive [inhibitor, single point] | 
69 | CCOC1=C2[C@H](c3cccc(Cl)c3)N(S(=O)(=O)c3ccc(C)cc3)C[C@H]2n2c(=O)n(-c3ccccc3)c(=O)n2C1 | inactive | 
70 | O=C(NCc1ccccc1)c1ccc(C(=O)N(C2CCCCC2)C2CCCCC2)cc1 | active: 23.1 µM | 
71 | COc1cc(/C=C/c2ccc3cccc([N+](=O)[O-])c3n2)ccc1OCC(=O)O | inactive | 
